Test results: paper PMC4207660, “Identification and Characterization of Hundreds of Potent and Selective Inhibitors of Trypanosoma brucei Growth from a Kinase-Targeted Library Screening Campaign” (PLoS Neglected Tropical Diseases, 2014)
Converted amounts (≈) assume the structure as drawn.

Key:
ChromlogD assay = details: for logD: reversed-phase HPLC column (Luna C18 (2)), pH 7.4
Protocol: The Chromatographic Hydrophobicity Index (CHI)[22] values were measured using reversed phase HPLC column (Luna C18 (2), Phenomenex, UK) with a fast acetonitrile gradient at starting mobile phase of pH = 7.4. CHI values are derived directly from the gradient retention times by using a calibration line obtained for standard compounds. The CHI value approximates to the volume % organic concentration when the compound elutes. […] The average error of the assay is ±3 CHI unit or ±0.25 ChromlogD.

[1] = system: T. brucei brucei parasites (Lister 427 strain); assay: Dose response growth inhibition assay (resazurin, 72 h); format: cell-based; details: Trypanosoma brucei, 72 h; read-out: pEC50 (converted)
Protocol: Greiner sterile black clear bottom 384-well assay plates were pre-dispensing with 200 nL of compound in each well, from master plates at 1 mM (100% DMSO) containing selection from the GSK compound collection. Controls of 0% response (control 1, 200 nL of 100%DMSO) and 100% response (control 2, 200 nL of 1 mM pentamidine) were included in each assay plate in columns 6 and 18, respectively. Plates containing 200 nL of 100% DMSO were included randomly in the assay, to assess quality through all process. […] After this period, 10 µL of 200 µM resazurin solution in prewarmed HMI-9 were added to each well, and plates were allowed to incubate 2 hours more prior fluorescence reading in a Wallac EnVision Multilabel Plate Reader (Perkin-Elmer). Raw fluorescent data from the Envision plate reader were uploaded into GSK HTS database (ActivityBase). Activity of each well was normalized as a percentage of inhibition per-plate basis using the following equation: [drawing 1]
For dose-response experiments, serial compound dilutions of selected hits from the primary campaign were plotted against compound concentration. Dose response master plates were prepared by 3-fold dilutions (starting with 10 mM DMSO stock solutions), providing 11 concentrations. From these master plates, 200 nL per well was stamped in final assay plates, including the same controls describe in the primary single shot assay. Compounds were dispensed as serial dilution curve format, with 11 points at 3-fold dilution and 40 µM as starting top concentration (n = 2). Growth inhibition assay was performed as described in previous assay.
A 4-parameter equation describing a sigmoidal dose-response curve was then fitted with an adjustable baseline using ActivityBase XE Runner software. Fitting of dose-response curves and EC50 determination were normalized as percentage of inhibition based on controls. The curve-fit model was based on a 4-parameter equation: [drawing 2]
Trypanosome cell culture. […]

Cytochrome P450 (CYP450) = Cytochrome P450 (CYP450) (Homo sapiens, UniProt P08684); assay: Cytochrome P450 inhibition profile; format: in vitro ADME; details: Measured; CYP3A4, VR substrate; read-out: CYP3A4VR pXC50 (converted)
Protocol: The P450 inhibition profile of the inhibitors was determined as previously described.

[2] = CLND kinetic solubility assay; format: physicochemical; details: phosphate buffered saline, pH 7.4, aqueous buffer, kinetic from dmso stock; Measured; read-out: Aq Sol
Protocol: 5 µL of 10 mM DMSO stock solution was diluted to 100 µL with pH 7.4 phosphate buffered saline, equilibrated for 1 hour at room temperature, filtered through Millipore MultiscreenHTS-PCF filter plates (MSSL BPC). The filtrate was quantified by suitably calibrated flow injection Chemi-Luminescent Nitrogen Detection.

logD (ChromlogD assay) | PFI (ChromlogD assay) | IC50 (Cytochrome P450 (CYP450)) [nM] | solubility kinetic at 1 h [2] [µM] | SMILES | EC50 [1] [nM]
4.58 | – | – | – | O=c1[nH]c(=O)n(CC2CCCCC2)c2nc(N3CCOCC3)sc12 [NEU-0001098] | 363
3.29 | – | – | – | CCCCn1nc(C)c2c(=O)[nH]c(-c3cccc(N)c3)nc21 [NEU-0001099] | 398
– | – | – | – | CCn1nccc1NC(=O)c1ncnc2ccc(-c3cccc(S(C)(=O)=O)c3)cc12 [NEU-0001104] | 251
– | 6.2 | 7940 | 4 (≈ 1.44 µg/mL) | O=C(N[C@H](CO)c1ccccc1)c1ccc2cncc(-c3cn[nH]c3)c2n1 [NEU-0001114] | –
